In all, about 44,000 compounds went through this assay and about 340 (0.77%) were called active. Not shown: some 5% with an inconclusive outcome. Calls follow the shape of the dose curve; as a rule, active = well fitted inhibition curve with a large enough effect; inconclusive = small, poorly fitted or top-dose-only effect; inactive = flat fitted curve, though single readings scatter. The list shows a part of the results.
experiment: Acumen qHTS Assay for Inhibitors of the mTORC1 Signaling Pathway in MEF (Tsc2-/-, p53-/-) Cells: Sytravon; details: phospho-rpS6 immunofluorescence/PI, 24 h; series mostly up to 38.3 µM; activity change, negative = inhibition: at the top concentration;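 also: plate controls were DMSO for no effect and rapamycin for full effect; nearly all actives have a fitted effect of over 50% in size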
Outline: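 Read-out: phospho-S6 Alexa-488 intensity over PI intensity per well, scored as % active cells using thresholds from rapamycin (7.5 nM) and DMSO controls. Tsc2-/-, p53-/- MEFs exposed to compound for 24 h; PI cell count recorded as viability.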

| SMILES | activity change, negative = inhibition |
| --- | --- |
| CCC(=O)C1=C(c2ccc(F)cc2)N(C(=O)CC)n2c(nnc2-c2ccc(OC)cc2)S1 | inactive: -0.442% |
| O=C(CSc1nccn1-c1cccc(Cl)c1)Nc1ccc2c(c1)OCO2 | inactive: -5.54% |
| CCN(C(=O)C1CCN(S(=O)(=O)c2cc(Br)cc3c2N(C(C)=O)CC3)CC1)c1cccc(C)c1 | inactive: 3.34% |
| Cn1c(=O)oc2cc(S(=O)(=O)CCC(=O)N3CCN(c4ccccc4F)CC3)ccc21 | inactive: -14.7% |
| O=C(CCn1c(=O)c2cccn2c2cccnc21)N1CCN(c2ccccc2)CC1 | inactive: -4.48% |
| Cc1ccc(-c2cc(C(=O)Oc3ccc(C#N)cc3)no2)cc1 | inactive: -0.506% |
| CCn1c(SCC(=O)Nc2ccccc2C(=O)OC)nc2ccsc2c1=O | inactive: -7.51% |
| CCC(=O)NNc1ncnc2c1cnn2-c1ccc(C)c(Cl)c1 | inactive: 13.7% |
| CCN(Cc1ccccc1)C(=O)Cn1c(=O)n(-c2ccccc2)c(=O)c2c1c1cc(C)ccc1n2C | inactive: 2.91% |
| Cc1nc2ccccc2c(=O)n1-c1ccc(NC(=O)c2ccccc2[N+](=O)[O-])cc1 | inactive: -0.438% |
| O=C(CSc1nc(=O)[nH]c2c1CCC2)NCc1ccccc1Cl | inactive: 2.52% |
| CCc1ccc(CSc2nc(-c3ccccc3F)nc3c2Cc2c(CO)cnc(C)c2O3)cc1 | inactive: 4.53% |
| COc1ccc(OC(=O)c2nc(SCc3ccccc3F)ncc2Cl)cc1 | inactive: 1.4% |
| Cc1ccc(NC(=O)Cn2c(=O)n(Cc3ccco3)c(=O)c3oc4ccccc4c32)cc1C | inactive: -9.42% |
| CCC(C)NC(=O)c1nn(-c2ccc(C)cc2)nc1CO (stereo not drawn) | inactive: 1.58% |
| O=C(Nc1ccc2nc(SCC(=O)N3CCOCC3)sc2c1)c1cccc(Br)c1 | inactive: -9.89% |
| CC(C)(C)c1ccc(C(=O)NCC(c2cccnc2)N2CCc3ccccc3C2)cc1 (stereo not drawn) | inactive: -14.4% |
| Cc1cccc(CNC(=O)C2CCC(CNS(=O)(=O)c3ccc4c(c3)CCCC(=O)N4)CC2)c1 (stereo not drawn) | inactive: -5.06% |
| NS(=O)(=O)c1ccc(NC(=O)CSc2ccc3ccccc3n2)cc1 | inactive: -14.6% |
| Cc1ccc(S(=O)(=O)c2cn(CC(=O)Nc3cccc(C)c3)c3cc4c(cc3c2=O)OCO4)cc1 | inactive: -3.71% |
| Cc1ccc(CNS(=O)(=O)c2cc3c(cc2Cl)NC(=O)CO3)o1 | inactive: 0% |

| SMILES | activity change, negative = inhibition |
| --- | --- |
| CC1CCC(C(=O)NC(C(=O)OCC(=O)c2ccc(Br)cc2)C(C)C)CC1 (stereo not drawn) | inactive: -4% |
| CCC(CC)C(=O)Nc1cc(-c2ccccc2F)nn1-c1ccccc1 | inactive: 5.01% |
| Cc1ccc(/C=C/c2onc(C)c2S(=O)(=O)N2CCC(C(=O)Nc3ccc(Br)c(C)c3)CC2)cc1 | inactive: -8.21% |
| CNS(=O)(=O)c1cn(CC(=O)Nc2ccc(OC)cc2OC)cc1S(=O)(=O)NC | inactive: -13.9% |
| Cc1ccccc1/C=C(\C#N)c1nc(-c2ccc(Cl)cc2)cs1 | inactive: 6.91% |
| Cc1csc2nc(-c3ccc(NS(=O)(=O)c4cc(F)ccc4F)cc3)cn12 | inactive: 3.8% |
| CN(C(=O)c1ccc2c(Cl)c3c(nc2c1)CCC3)c1ccccc1F | inactive: 0.368% |
| COc1ccc(CCN2C(=O)CN(C3CCCCCC3)C(=O)C2c2ccc(OC(C)C)c(OC)c2)cc1OC (stereo not drawn) | inactive: 0.562% |
| Cc1ccc(CNC(=O)c2nnc(Cc3ccc(Cl)cc3)o2)cc1 | inactive: -0.369% |
| CCN(CC)C(=O)Cn1c(=O)n(-c2ccccc2)c(=O)c2c3c(sc21)CCC3 | inactive: -0.487% |
| COc1ccccc1C(=O)Nc1ccc(C(=O)OCc2cc(=O)n3nc(C)sc3n2)cc1 | inactive: 14.1% |
| Cc1c(Cl)cccc1Nc1nc2ccc(C(=O)c3ccccc3)cc2n2cnnc12 | inactive: -1.56% |
| Cc1ccc(NC(=O)Cn2c(-c3cncs3)nc3ccccc32)c(Br)c1 | inactive: 2.72% |
| Cc1ccc(CNC(=O)CN2C(=O)C3(SCC(=O)N3c3ccc(F)cc3)c3ccccc32)cc1 (stereo not drawn) | inactive: -2.12% |
| CC(=O)N1CCc2c(sc3c2c(=O)n(Cc2ccccc2)c(=O)n3Cc2cc(C)ccc2C)C1 | inactive: 2% |
| COc1ccc2c(c1)Cc1sc(NC(=O)c3cccc(Br)c3)nc1-2 | inactive: 3.39% |
| CC1CN(C(=O)N2CCC(C(=O)NCCCc3ccccc3)CC2)c2ccccc2O1 (stereo not drawn) | inactive: 9.36% |
| CCOc1ccc(Nc2oc(/C=C/c3cccc(OC)c3)nc2C#N)cc1 | inactive: -4.79% |
| CCCCCn1c(CCNC(=O)c2cccc(C)c2)nc2ccccc21 | inactive: -19.4% |
| COc1ccc(CNC(=O)CCc2nc(-c3ccc(OC)cc3)no2)cc1 | inactive: -9.19% |
| CCc1ccc(CNC(=O)C2CCCN(S(=O)(=O)c3ccc4c(ccn4C)c3)C2)cc1 (stereo not drawn) | inactive: -6.47% |

| SMILES | activity change, negative = inhibition |
| --- | --- |
| CCSc1nc2c([nH]c3ccccc32)c(=O)n1-c1ccc(F)cc1 | inactive: -9.89% |
| Cc1cc(C)c2c(n1)sc1c(=O)n(-c3ccccc3C(F)(F)F)nnc12 | inactive: 1.2% |
| CCC(=O)N1CCc2cc(CNS(=O)(=O)c3cccs3)ccc21 | inactive: 4.76% |
| Cc1ccc(OCCSc2nc3ccc(NC(=O)c4ccc(F)cc4)cc3s2)cc1 | inactive: 0.41% |
| CCOC(=O)C(CC)Sc1c(CC)cnc2c1c(=O)n(C)c(=O)n2C (stereo not drawn) | inactive: -4.8% |
| Cc1cccc(C(C)C)c1NC(=O)C(NS(=O)(=O)c1cccc2nsnc12)c1ccccc1 (stereo not drawn) | inactive: 1.92% |
| Cc1ccc(Cc2cn3cc(-c4ccc(F)cc4)nc3s2)cc1 | inactive: 1.1% |
| COc1ccc(-c2c(C)c3ccc(O)c(CN4CCCC4)c3oc2=O)cc1OC | inactive: -2.01% |
| COc1cccc(-c2cn3ncsc3n2)c1 | inactive: -10.3% |
| Cc1ccccc1CSc1ccc(-c2cccs2)nn1 | inactive: -18% |
| COc1ccc(OCc2nc(-c3ccc(-n4cccc4)cc3)no2)cc1 | inactive: 1.6% |
| Cc1cc(C)n(-c2nc(C)c(C)c(=O)n2CC(=O)Nc2ccc(OC(F)(F)F)cc2)n1 | inactive: -0.333% |
| Cc1cccc(NC(=O)c2cc(S(=O)(=O)N3CCCCCC3)cn2C)c1C | inactive: -4.13% |
| Cc1ccc(NC(=O)Cn2cc(C(=O)C3CC3)c3ccccc32)cc1C | inactive: 2.63% |
| Cc1ccc(CNC(=O)c2ccc(Cn3c(=O)c4ccccc4n(CC(=O)Nc4c(C)cc(C)cc4C)c3=O)cc2)cc1 | inactive: 0.977% |
| O=C(NCC(c1cccs1)S(=O)(=O)c1cccs1)c1cccc(F)c1 (stereo not drawn) | inactive: -5.77% |
| c1cnc(N2CCN(c3ncc4c(n3)CCNC4)CC2)nc1 | inactive: 2.97% |
| COc1ccc(OC)c(-n2nnc(-c3nc(-c4cc(OC)c(OC)c(OC)c4)no3)c2C)c1 | inactive: -3.66% |
| O=c1oc2c3c(ccc2c2ccccc12)OCN(Cc1ccc(Cl)cc1)C3 | inactive: 1.23% |
| COc1ccc(-c2nc3ccccc3n3c(-c4ccccc4)c4c(=O)n(C)c(=O)n(C)c4c23)cc1OC | inactive: -1.42% |
| CN1C(=O)c2ccccc2Sc2ccc(NC(=O)N3CCN(c4ccccc4)CC3)cc21 | inactive: -10% |

From PubChem BioAssay AID493208 (National Center for Advancing Translational Sciences (NCATS), 2011)
